This passage reports z-score results from PubChem BioAssay AID488969 (Vanderbilt High Throughput Screening Facility, 2010).

SMILES strings stand for the structures. In all, about 110,000 compounds were measured (“z-score”: median about -0.1, highest 2% from about 2 on). Some of the results follow. Activity calls are given as the source filed them.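 The calls were made as follows: active = z-score in the third read window above 3 or below -3; inactive = the rest.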

For the experiment, the target named is Metabotropic glutamate receptor 8 (Rattus norvegicus) (UniProt P70579). The experiment can be described thus: rat mGluR8 modulators via GIRK flux, primary screen, cell-based, thallium flux, HTS (AID 488969). As to conditions: HEK293 rat mGluR8, GIRK (G protein-gated inwardly rectifying potassium channel) thallium flux, FluoZin2; at 10 µM; stronger effect = higher value; submaximal glutamate (EC20) added with thallium.
UniProt P70579, sequence (P70579 whole entry, looked up): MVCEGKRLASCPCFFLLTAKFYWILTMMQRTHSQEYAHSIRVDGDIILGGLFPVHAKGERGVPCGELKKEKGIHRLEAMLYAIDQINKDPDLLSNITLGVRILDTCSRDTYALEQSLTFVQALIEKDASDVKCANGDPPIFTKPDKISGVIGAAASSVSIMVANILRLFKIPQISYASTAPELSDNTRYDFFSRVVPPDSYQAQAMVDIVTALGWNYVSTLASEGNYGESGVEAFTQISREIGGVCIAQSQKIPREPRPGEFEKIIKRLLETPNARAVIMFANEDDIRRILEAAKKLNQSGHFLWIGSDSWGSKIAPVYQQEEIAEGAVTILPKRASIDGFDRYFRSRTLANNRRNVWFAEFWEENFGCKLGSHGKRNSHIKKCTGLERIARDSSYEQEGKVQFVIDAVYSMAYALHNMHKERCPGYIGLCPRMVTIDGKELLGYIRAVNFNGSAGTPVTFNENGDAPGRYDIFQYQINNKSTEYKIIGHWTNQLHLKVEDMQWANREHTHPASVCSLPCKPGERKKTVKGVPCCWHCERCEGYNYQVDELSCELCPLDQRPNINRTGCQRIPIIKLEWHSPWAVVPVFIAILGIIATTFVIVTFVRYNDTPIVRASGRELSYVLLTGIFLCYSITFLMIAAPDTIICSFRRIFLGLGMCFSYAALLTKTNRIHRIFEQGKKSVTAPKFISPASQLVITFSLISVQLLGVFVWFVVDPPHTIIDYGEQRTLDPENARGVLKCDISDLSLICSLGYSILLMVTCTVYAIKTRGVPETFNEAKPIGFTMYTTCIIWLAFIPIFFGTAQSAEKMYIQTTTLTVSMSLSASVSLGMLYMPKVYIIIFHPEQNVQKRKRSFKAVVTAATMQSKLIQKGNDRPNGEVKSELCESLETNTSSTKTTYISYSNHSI
`Cc1nc(CC(=O)c2c(C)cc(O)cc2O)cs1`: the z-score is -0.458. In the case of `CCOC(=O)N1CCN(C(=O)CCn2nc(-c3ccc(Cl)cc3)ccc2=O)CC1` it was -0.736. As for `Cc1ccc(NC(=S)N(CCCN2CCOCC2)Cc2ccccn2)cc1`, the figure is 0.169; as for `CC(C)COP(=O)(c1ccc(N(C)C)cc1)C(Nc1ccccc1)c1ccccc1` (stereo not given), -0.803. In the case of `COc1cc(OC)c(C2=NOC(C(=O)NCCc3ccccc3)C2)cc1Cl` (stereo not given) it was -0.272; in that of `Cc1ccccc1OCC(=O)NC(=S)Nc1ccc(N2CCOCC2)c(Cl)c1`, 0.328.

`Cc1cc(C)c2nc(SCc3ccc([N+](=O)[O-])cc3)nc(C)c2c1`: the z-score is -0.294. In the case of `CC(=O)c1cccc(-n2c(CCC(=O)O)ccc2-c2cccs2)c1` it was -0.777; in that of `CCSc1nnc(NC(=O)CSc2nc3c(c(=O)n2-c2ccccc2)SCC3)s1`, -0.397; in that of `COCCNC(=O)C(c1ccco1)N(C(=O)Cn1nnc2ccccc21)c1cccc(C)c1C` (stereo not given), 0.429.

As to `Clc1nc(NCc2cccnc2)nc(N2CCOCC2)n1`, the z-score is -0.546. In the case of `COc1cc(OC)cc(C(=O)N2c3ccc(F)cc3CCC2C)c1` (stereo not given) it was -1.02. In the case of `COc1ccc(CN2CCCC(C(=O)N(C)Cc3ccccc3)C2)cc1OC` (stereo not given) it was -0.456. In the case of `CCSc1ccc(-c2nn(-c3ccccc3)cc2/C=C(/C#N)C(=O)NC)cc1` it was -0.126. `O=C(/C=C/c1c(F)cccc1Cl)Nc1ncccn1` came in with a z-score of -0.288. As for `Oc1ccc(N=Nc2nc(-c3ccccc3)c(-c3ccccc3)[nH]2)cc1`, the figure is -0.218.

As to `FC(F)(F)c1nc2ccccc2n2c(-c3ccc(Cl)cc3Cl)nnc12`, the z-score is -0.146. In turn, `CN(C)N1C(N)=C(C#N)C(c2ccsc2)C2=C1CCCC2=O` (stereo not given) yielded a z-score of -0.193.

As to `CN1CCN(C2CCCCCC2)CC1`, the z-score is 0.192. `COc1ccc(NC(=O)CC2C(=O)N(c3ccc(Cl)cc3)C(=S)N2NC(=O)c2cccc(F)c2)cc1` (stereo not given) came in with a z-score of 0.0601. Consider `Cc1cc(C)cc(NC(=O)C2CCN(S(=O)(=O)c3c(C)n[nH]c3C)CC2)c1`, for which the z-score is -0.0293.

As to `COc1ccc(Cl)cc1N1C(=O)C2CCCN2C1c1ccc(F)cc1` (stereo not given), the z-score is -0.785. In the case of `CCN1C(=O)CC(NCc2ccc3c(c2)OCO3)C1=O` (stereo not given) it was 0.243. The molecule `CCOc1nc(-c2ccc(OC)cc2)ccc1-c1noc(C)n1` yielded a z-score of -0.105.

The molecule `O=C(CSCCc1ccccn1)Nc1ccccn1` returned a z-score of -0.34.

On to `CCc1nc(SCC(=O)N2c3ccccc3CC2C)c2c(C)c(C)sc2n1` (stereo not given), for which the z-score stood at 0.0133. On to `Cc1c(NC(=O)c2ccc(CN3CCc4ccccc4C3)cc2)c(=O)n(-c2ccccc2)n1C`, for which the z-score stood at 0.529. As for `O=C(NCC(=O)N(CC1CCCO1)C(C(=O)NC1CCCCC1)c1ccc(F)cc1)c1ccco1` (stereo not given), the figure is 0.579. On to `CCc1ccc(OCC(=O)N/N=C(\C)c2ccc3c(c2)OCCO3)cc1`, for which the z-score was -0.773. In the case of `CC(NC(=O)COc1ccc(/C=N/NC(=O)C(=O)Nc2ccccc2Br)cc1)c1ccccc1` (stereo not given) it was 0.00853; in that of `O=C(NCCc1c[nH]c2ccccc12)C1Cc2ccccc2CN1C(=O)c1ccco1` (stereo not given), 0.0151. `O=C1CCCC(O)=C1N=Nc1ccc2c(c1)OCO2` showed a z-score of -0.0975.

Take `CC(O)/C=C/c1cccc[n+]1C` (stereo not given): the z-score was -0.0236. In the case of `Cc1ccc(S(=O)(=O)N(CCCO)CC(O)CON=C2c3ccccc3-c3ccccc32)cc1` (stereo not given) it was 0.262; in that of `COc1cccc(C(=O)N2CCN(C(=O)c3cccc(F)c3)CC2)c1`, 0.212; in that of `CSc1nc(C)c(C(=O)Nc2ccccc2)c(C)c1C#N`, 1.32. As for `CCN1CN(Cc2ccco2)CNC1=S`, the figure is -0.106. In the case of `COc1cc(NC(=O)CSCc2cnn(-c3ccccc3)c2-n2cccc2)cc(OC)c1` it was active: 7.86; in that of `COCCN(C(=S)Nc1cccc(OC)c1)C(C)c1cccs1` (stereo not given), -0.334. `CC(C)(C)n1nnnc1CN(Cc1ccco1)Cc1cc2cc3c(cc2[nH]c1=O)OCO3`: the z-score turned out to be 1.88.

As to `NS(=O)(=O)c1ccc(NC(=S)Nc2cc(Cl)c(Cl)cc2Cl)cc1`, the z-score was -0.16. For `NC(=O)c1ccccc1NC(=O)/C=C/c1ccc(Cl)cc1`, the z-score amounted to 0.0369. As for `CSc1nc(NC(C)(C)C)nc(Oc2ccc(=O)n(C)n2)n1`, the figure is -0.417; as for `O=C(Nc1ccc(F)cc1F)c1cccn1-c1ncc(C(F)(F)F)cc1Cl`, -0.267; as for `C/C(=N/NC(=O)c1sc(NS(=O)(=O)c2ccccc2)nc1C)c1ccc(F)cc1`, -0.895. For `Cc1ccccc1Oc1ncccc1C(=O)/C(C#N)=C/N(C)C`, the z-score turned out to be 0.0796. In the case of `CCOC(=O)N1CCN(C(=O)Nc2ccc3nc(C)c(C)nc3c2)CC1`, the z-score stood at 0.246. In the case of `Cc1ccc(COc2ccc(/C=N/NC(=O)c3ccc(CN4CCOCC4)cc3)cc2)cc1` it was 0.76; in that of `Cc1ccc(-c2nc3ncccn3c2NC(=O)C2CC2)cc1`, 0.268; in that of `O=C(/C=C/c1ccc2c(c1)OCO2)Nc1nc2ccccc2s1`, -0.342. In the case of `COc1ccc(CNS(=O)(=O)c2ccc(C3CNC(=O)C3)cc2)cc1` (stereo not given) it was 0.726; in that of `Cc1nc2sc(C(c3ccccc3)N3CCN(C(=O)c4ccco4)CC3)c(O)n2n1` (stereo not given), 0.788. Molecule `Cc1ccc(CSCC(=O)N2CCN(Cc3ccc4c(c3)OCO4)CC2)cc1` showed a z-score of 0.00333. With `COc1ccc(C(=O)n2cc(C(=O)c3cc(C)ccc3O)cn2)cc1OC`, the z-score is -1.15. As for `Cn1c(SCC(=O)c2ccc(-c3ccccc3)cc2)nnc1-c1ccco1`, the figure is 0.189; as for `O=C(Nc1cccc2ccccc12)N1CCc2ccccc2C1`, -0.396; as for `CC1(C)Cc2c(sc3ncn(N)c(=N)c23)CO1`, -0.494. In the case of `Cc1ccc(C(=O)NC(NC(=O)c2ccc(C)cc2)c2cccc([N+](=O)[O-])c2)cc1` it was 0.0868; in that of `Cc1ccc(NS(=O)(=O)c2ccc(OCC(=O)Nc3cccc([N+](=O)[O-])c3)c(C)c2)cc1`, -0.0659; in that of `NC(=O)CS(=O)(=O)c1nc2ccccc2n1CC(=O)N1CCCCC1`, 0.0496. As for `CC(=O)Nc1ccc(C(=O)OCC(=O)NC(=O)NC(C)(C)C)cc1`, the figure is -0.0333. `COc1ccccc1N1C(=O)CC(Nc2ccc(N3CCOCC3)cc2)C1=O` (stereo not given) returned a z-score of -0.136. In the case of `COc1cc(C(=O)NCC(c2ccco2)N(C)C)cc(OC)c1OC` (stereo not given) it was -0.242; in that of `CS(=O)(=O)N(CC(=O)NCc1ccccc1)Cc1ccc(Cl)cc1`, -0.233; in that of `CC(C)(C)c1ccc(-c2nc(C=O)c3ccccn23)cc1`, -0.464. In turn, `CS(=O)(=O)N(CC(=O)N1CCN(c2ccccc2)CC1)c1cc(C(F)(F)F)ccc1Cl` yielded a z-score of -0.525.

Take `O=C(NN1C(=O)C2C(c3ccccc3)C=CC(c3ccccc3)C2C1=O)c1ccccc1` (stereo not given): the z-score was determined as 0.374. As for `O=C1CC(c2ccc(Cl)cc2)n2nc(N3C(=O)c4ccccc4C3=O)nc2N1` (stereo not given), the figure is -0.261; as for `CC(C)Oc1ccc(C2c3c(oc4ccccc4c3=O)C(=O)N2CCCN2CCOCC2)cc1` (stereo not given), -0.432; as for `Fc1ccc(NC(=S)NN=C2CCCCCC2)cc1`, active: 12. In the case of `CCCCCn1c(N2CCC(Cc3ccccc3)CC2)nc2c1c(=O)[nH]c(=O)n2C` it was -0.393; in that of `CN(C)Cc1ccc(O)c(CCc2ccccc2)n1`, -0.201; in that of `COC(=O)C1CCN(C(=O)CCC2CCCCC2)CC1`, -0.476. As for `C/C=C/C(=O)OCC(=O)Nc1c(Cl)cccc1Cl`, the figure is 0.337; as for `COc1ccc(C2CC(c3ccc(OC)cc3)n3nc(NC(=O)c4ccco4)nc3N2)cc1` (stereo not given), -0.483; as for `CCC(=O)Nc1ccc(NC(=O)c2ccc3c(c2)OCO3)cc1`, -0.405. Turning to `CC(C)Oc1ccc(C(=O)Nc2ccccc2N2CCCC2)cc1`, the z-score is -0.324. In the case of `O=C(O)Cn1c(P(=O)(O)c2ccccc2)nc2ccccc21` it was -0.499.

`CCc1c(C)nc(SCC(=O)Nc2ccc(Br)cc2)[nH]c1=O` yielded a z-score of -0.233. As for `O=C1C2C3C=CC(C4CC34)C2C(=O)N1Cc1ccco1` (stereo not given), the figure is 0.448.

In turn, `Cc1nnc(SC(C)C(=O)NC2CCCc3ccccc32)n1-c1ccccc1` (stereo not given) came in with a z-score of -0.0715. As for `Cc1ccccc1C(=O)NC(=S)Nc1ccc(S(=O)(=O)N2CCOCC2)cc1`, the figure is -0.275; as for `O=C(CCc1ccc(S(=O)(=O)N2CCOCC2)cc1)Nc1nccs1`, -0.204.

In turn, `O=C(C1CCCO1)N(Cc1ccccc1)c1ccccc1` (stereo not given) registered a z-score of -0.415. Regarding `CCOC(=O)COc1ccc(S(=O)(=O)N2CCc3ccccc3C2)cc1`, the z-score was -0.357.

As for `O=C(NCc1ccncc1)Nc1cccc(Cl)c1`, the z-score was found to be 0.129.

`CC(C)CC(=O)NC(=S)Nc1nc(-c2cccc3ccccc23)cs1` registered a z-score of 2.97. In the case of `CCOC(=O)c1cc(-c2ccccc2)n(CCC(=O)N2CCN(c3ccc(OC)cc3)CC2)c1C` it was -0.203; in that of `COc1ccc(N2C(=O)NC3CC2(C)Oc2ccc(Br)cc23)cc1OC` (stereo not given), -1.01. In the case of `Cc1ccc(S(=O)(=O)N/N=C/c2cn(C)nc2C)cc1` it was -0.0969; in that of `CCCCN1CCc2c1nc1ccc(Br)cc1c2N`, 0.536; in that of `COc1ccc(-c2cc(C(F)(F)F)n3nc(C(=O)NCc4ccco4)cc3n2)cc1OC`, 0.0487.

Molecule `CC1=CC(C)(C)N(C(=O)c2ccccc2)c2ccccc21` showed a z-score of 0.192. Regarding `COc1ccc(OC)c(C2/C(=C(\O)c3ccc(OC)c(Cl)c3)C(=O)C(=O)N2CCN(C)C)c1` (stereo not given), the z-score is -0.393. Take `CC(C)NC(=O)c1onc(CSc2ccc(F)cc2)c1C(=O)O`: the z-score is -0.0064. `CC(C)n1cnc2cc(NCc3ccco3)ccc21` came in with a z-score of -0.703.

`CC1(C)CC(=O)C(N=Nc2c(Cl)cc(Cl)cc2Cl)=C(O)C1` returned a z-score of -0.601. For `Cc1[nH]nc(N=CC2=C(O)CC(c3ccco3)CC2=O)c1-c1ccccc1` (stereo not given), the z-score was 0.835. The molecule `Cc1occc1-c1nnc(SCC(=O)c2cc3ccccc3oc2=O)o1` had a z-score of -0.267. In the case of `O=S1(=O)CC(O)C(Nc2ccccc2)C1` (stereo not given) it was -0.341; in that of `Brc1cc2c(cc1COc1ccc(-c3nn[nH]n3)cc1)OCO2`, 0.281; in that of `Cc1ccccc1NC(=O)/C(C#N)=C/c1ccsc1`, -0.272. As for `COCCn1nnnc1C(C(C)C)N1CCOCC1` (stereo not given), the figure is -0.214.

Turning to `CN(c1ccccc1)S(=O)(=O)c1ccc(Cl)c(C(=O)Nc2nc3ccccc3[nH]2)c1`, the z-score was -0.226. In the case of `CC(=O)Nc1ccc2c(c1)ncn2C1CCCCC1`, the z-score was determined as 0.387.

With `Cc1cc(Oc2cnn(C(C)(C)C)c(=O)c2Cl)cc(C(C)C)c1`, the z-score was -0.133.

In turn, `COc1ccccc1NC(=O)CSCC(N)=O` gave a z-score of 0.821.

In turn, `Cc1cccc(NCCNc2cccc(C)c2)c1` yielded a z-score of -0.488. As for `S=C(NCC1CCCO1)Nc1ccc(Cl)cc1Cl` (stereo not given), the figure is 0.145; as for `O=C(O)C1CC=CCC1C(=O)Nc1cccc(Cl)c1` (stereo not given), -0.0814.
